The supplement of paper PMC8728848
This is one part of the list.

Columns and labels:
Experiment in all cases: glycan array binding signal (z-score within array); higher = stronger binding
Conditions in all cases: glycan notation: IUPAC condensed, linker removed
Neu5Ac(a2-3)GalNAc = target: Neu5Ac(a2-3)GalNAc
Summary of the method: (§1)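 Columns mapping to the same glycan were averaged after glycan names were converted to IUPAC-condensed notation. The data come from 3228 arrays in the Consortium for Functional Glycomics database, limited to those with an available protein sequence. Binding is reported as a within-array Z-score averaged across arrays of one protein sequence and across linkers.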

[1] = target: Neu5Ac(a2-3)GalNAc(b1-4)GlcNAc
Summary of the method: as §1

[2] = target: Neu5Ac(a2-3)[GalNAc(b1-4)]Gal(b1-4)Glc
Summary of the method: as §1

[3] = target: Neu5Ac(a2-3)[GalNAc(b1-4)]Gal(b1-4)GlcNAc
Summary of the method: as §1

[4] = target: Neu5Ac(a2-3)[GalNAc(b1-4)]Gal(b1-4)GlcNAc(b1-3)GalNAc
Summary of the method: as §1

[5] = target: Neu5Ac(a2-3)[Neu5Ac(a2-6)]GalNAc
Summary of the method: as §1

Neu5Ac(a2-6)Gal = target: Neu5Ac(a2-6)Gal
Summary of the method: as §1

[6] = target: Neu5Ac(a2-6)Gal(b1-3)GlcNAc(b1-3)[Gal(b1-4)GlcNAc(b1-6)]Gal(b1-4)Glc
Summary of the method: as §1

Neu5Ac(a2-6)Gal(b1-4)Glc = target: Neu5Ac(a2-6)Gal(b1-4)Glc
Summary of the method: as §1

[7] = target: Neu5Ac(a2-6)Gal(b1-4)GlcNAc
Summary of the method: as §1

[8] = target: Neu5Ac(a2-6)Gal(b1-4)GlcNAc(b1-2)Man
Summary of the method: as §1

[9] = target: Neu5Ac(a2-6)Gal(b1-4)GlcNAc(b1-2)Man(a1-3)Man(b1-4)GlcNAc(b1-4)GlcNAc
Summary of the method: as §1

[10] = target: Neu5Ac(a2-6)Gal(b1-4)GlcNAc(b1-2)Man(a1-3)[Gal(b1-4)GlcNAc(b1-2)Man(a1-6)]Man(b1-4)GlcNAc(b1-4)GlcNAc
Summary of the method: as §1

[11] = target: Neu5Ac(a2-6)Gal(b1-4)GlcNAc(b1-2)Man(a1-3)[GlcNAc(b1-4)][Neu5Ac(a2-6)Gal(b1-4)GlcNAc(b1-2)Man(a1-6)]Man(b1-4)GlcNAc(b1-4)GlcNAc
Summary of the method: as §1

[12] = target: Neu5Ac(a2-6)Gal(b1-4)GlcNAc(b1-2)Man(a1-3)[Man(a1-6)]Man(b1-4)GlcNAc(b1-4)GlcNAc
Summary of the method: as §1

[13] = target: Neu5Ac(a2-6)Gal(b1-4)GlcNAc(b1-2)Man(a1-3)[Neu5Ac(a2-3)Gal(b1-4)GlcNAc(b1-2)Man(a1-6)]Man(b1-4)GlcNAc(b1-4)GlcNAc
Summary of the method: as §1

[14] = target: Neu5Ac(a2-6)Gal(b1-4)GlcNAc(b1-2)Man(a1-3)[Neu5Ac(a2-6)Gal(b1-4)GlcNAc(b1-2)Man(a1-6)]Man(b1-4)GlcNAc(b1-4)GlcNAc
Summary of the method: as §1

[15] = target: Neu5Ac(a2-6)Gal(b1-4)GlcNAc(b1-2)Man(a1-3)[Neu5Ac(a2-6)Gal(b1-4)GlcNAc(b1-2)Man(a1-6)]Man(b1-4)GlcNAc(b1-4)[Fuc(a1-6)]GlcNAc
Summary of the method: as §1

[16] = target: Neu5Ac(a2-6)Gal(b1-4)GlcNAc(b1-2)Man(a1-6)Man(b1-4)GlcNAc(b1-4)GlcNAc
Summary of the method: as §1

[17] = target: Neu5Ac(a2-6)Gal(b1-4)GlcNAc(b1-2)Man(a1-6)[Gal(b1-4)GlcNAc(b1-2)Man(a1-3)]Man(b1-4)GlcNAc(b1-4)GlcNAc
Summary of the method: as §1

[18] = target: Neu5Ac(a2-6)Gal(b1-4)GlcNAc(b1-2)Man(a1-6)[GlcNAc(b1-2)Man(a1-3)]Man(b1-4)GlcNAc(b1-4)GlcNAc
Summary of the method: as §1

[19] = target: Neu5Ac(a2-6)Gal(b1-4)GlcNAc(b1-2)Man(a1-6)[Man(a1-3)]Man(b1-4)GlcNAc(b1-4)GlcNAc
Summary of the method: as §1

[20] = target: Neu5Ac(a2-6)Gal(b1-4)GlcNAc(b1-2)[Neu5Ac(a2-6)Gal(b1-4)GlcNAc(b1-4)]Man(a1-3)[GlcNAc(b1-4)][Neu5Ac(a2-6)Gal(b1-4)GlcNAc(b1-2)[Neu5Ac(a2-6)Gal(b1-4)GlcNAc(b1-6)]Man(a1-6)]Man(b1-4)GlcNAc(b1-4)GlcNAc
Summary of the method: as §1

[21] = target: Neu5Ac(a2-6)Gal(b1-4)GlcNAc(b1-2)[Neu5Ac(a2-6)Gal(b1-4)GlcNAc(b1-4)]Man(a1-3)[GlcNAc(b1-4)][Neu5Ac(a2-6)Gal(b1-4)GlcNAc(b1-4)Man(a1-6)]Man(b1-4)GlcNAc(b1-4)GlcNAc
Summary of the method: as §1

[22] = target: Neu5Ac(a2-6)Gal(b1-4)GlcNAc(b1-2)[Neu5Ac(a2-6)Gal(b1-4)GlcNAc(b1-6)]Man(a1-6)[Neu5Ac(a2-6)Gal(b1-4)GlcNAc(b1-2)Man(a1-3)][GlcNAc(b1-4)]Man(b1-4)GlcNAc(b1-4)GlcNAc
Summary of the method: as §1

[23] = target: Neu5Ac(a2-6)Gal(b1-4)GlcNAc(b1-3)Gal(b1-3)GlcNAc
Summary of the method: as §1

[24] = target: Neu5Ac(a2-6)Gal(b1-4)GlcNAc(b1-3)Gal(b1-4)GlcNAc
Summary of the method: as §1

[25] = target: Neu5Ac(a2-6)Gal(b1-4)GlcNAc(b1-3)Gal(b1-4)GlcNAc(b1-2)Man(a1-3)[Neu5Ac(a2-6)Gal(b1-4)GlcNAc(b1-3)Gal(b1-4)GlcNAc(b1-2)Man(a1-6)]GalNAc
Summary of the method: as §1

[26] = target: Neu5Ac(a2-6)Gal(b1-4)GlcNAc(b1-3)Gal(b1-4)GlcNAc(b1-3)Gal(b1-4)GlcNAc
Summary of the method: as §1

[27] = target: Neu5Ac(a2-6)Gal(b1-4)GlcNAc(b1-3)Gal(b1-4)GlcNAc(b1-3)Gal(b1-4)GlcNAc(b1-2)Man(a1-3)[Neu5Ac(a2-6)Gal(b1-4)GlcNAc(b1-3)Gal(b1-4)GlcNAc(b1-3)Gal(b1-4)GlcNAc(b1-2)Man(a1-6)]GalNAc
Summary of the method: as §1

[28] = target: Neu5Ac(a2-6)Gal(b1-4)GlcNAc(b1-3)Gal(b1-4)GlcNAc(b1-3)GalNAc
Summary of the method: as §1

[29] = target: Neu5Ac(a2-6)Gal(b1-4)GlcNAc(b1-3)Gal(b1-4)GlcNAc(b1-3)[Neu5Ac(a2-6)Gal(b1-4)GlcNAc(b1-3)Gal(b1-4)GlcNAc(b1-6)]GalNAc
Summary of the method: as §1

[30] = target: Neu5Ac(a2-6)Gal(b1-4)GlcNAc(b1-3)Gal(b1-4)GlcNAc(b1-6)[Gal(b1-3)]GalNAc
Summary of the method: as §1

[31] = target: Neu5Ac(a2-6)Gal(b1-4)GlcNAc(b1-3)Gal(b1-4)[Fuc(a1-3)]GlcNAc(b1-3)Gal(b1-4)[Fuc(a1-3)]GlcNAc
Summary of the method: as §1

[32] = target: Neu5Ac(a2-6)Gal(b1-4)GlcNAc(b1-3)GalNAc
Summary of the method: as §1

[33] = target: Neu5Ac(a2-6)Gal(b1-4)GlcNAc(b1-3)[Neu5Ac(a2-6)Gal(b1-4)GlcNAc(b1-6)]GalNAc
Summary of the method: as §1

[34] = target: Neu5Ac(a2-6)Gal(b1-4)GlcNAc(b1-6)GalNAc
Summary of the method: as §1

[35] = target: Neu5Ac(a2-6)Gal(b1-4)GlcNAc(b1-6)[Gal(b1-3)GlcNAc(b1-3)]Gal(b1-4)Glc
Summary of the method: as §1

B1: Pwp5 ND (Candida glabrata) (protein)
chain: MGSSHHHHHHSSGLVPRGSHMASANPVPLTNVCYFPEEYPRQAGFRAITAGLASTILQGSVDELLNYSGLSSLTTQQTTTTTPNFQLPTLPLPTNVYGLTVVPLYLLVQLQGYFVPPVSGQYTFSLENTNDAAIIFFGNPSAFPCGDLSAWPQASADDITVTDGTFPSRTLFLKAGVAYPMRISYYNSLGSGNLAVSFTDPGGTKRTNWNGYIWRYNSCSTCTYT
glycan array binding signal (z-score) (Neu5Ac(a2-3)GalNAc): -0.413
glycan array binding signal (z-score) [1]: -0.168
glycan array binding signal (z-score) [2]: 0.052
glycan array binding signal (z-score) [3]: -0.415
glycan array binding signal (z-score) [4]: -0.287
glycan array binding signal (z-score) [5]: -0.536
glycan array binding signal (z-score) (Neu5Ac(a2-6)Gal): -0.576
glycan array binding signal (z-score) [6]: -0.739
glycan array binding signal (z-score) (Neu5Ac(a2-6)Gal(b1-4)Glc): 0.116
glycan array binding signal (z-score) [7]: -0.135
glycan array binding signal (z-score) [8]: -0.023
glycan array binding signal (z-score) [9]: 0.131
glycan array binding signal (z-score) [10]: -0.204
glycan array binding signal (z-score) [11]: -0.03
glycan array binding signal (z-score) [12]: -0.067
glycan array binding signal (z-score) [13]: -0.442
glycan array binding signal (z-score) [14]: 0.94
glycan array binding signal (z-score) [15]: 1.39
glycan array binding signal (z-score) [16]: 0.488
glycan array binding signal (z-score) [17]: -0.288
glycan array binding signal (z-score) [18]: 2.4
glycan array binding signal (z-score) [19]: 0.146
glycan array binding signal (z-score) [20]: -0.362
glycan array binding signal (z-score) [21]: -0.613
glycan array binding signal (z-score) [22]: -0.483
glycan array binding signal (z-score) [23]: -0.347
glycan array binding signal (z-score) [24]: -0.115
glycan array binding signal (z-score) [25]: -0.169
glycan array binding signal (z-score) [26]: -0.65
glycan array binding signal (z-score) [27]: 3.34
glycan array binding signal (z-score) [28]: -0.259
glycan array binding signal (z-score) [29]: -0.007
glycan array binding signal (z-score) [30]: -0.329
glycan array binding signal (z-score) [31]: 0.095
glycan array binding signal (z-score) [32]: -0.267
glycan array binding signal (z-score) [33]: 0.074
glycan array binding signal (z-score) [34]: 3.96
glycan array binding signal (z-score) [35]: 0.494
